The campaign covered roughly 310,000 compounds. About 2,200 (0.71%) showed an effect of 50% or more. Effects have a minus sign here. The list shows a part of the results.

This is an account of results in paper PMC4336329 (PLoS ONE, 2015).

In this assay the target is human ether-à-go-go-related gene (hERG) potassium channel (human, UniProt Q12809). Description: primary screen, population patch clamp on CHO cells stably expressing hERG.
Chain of human ether-à-go-go-related gene (hERG) potassium channel (Q12809 whole entry, looked up): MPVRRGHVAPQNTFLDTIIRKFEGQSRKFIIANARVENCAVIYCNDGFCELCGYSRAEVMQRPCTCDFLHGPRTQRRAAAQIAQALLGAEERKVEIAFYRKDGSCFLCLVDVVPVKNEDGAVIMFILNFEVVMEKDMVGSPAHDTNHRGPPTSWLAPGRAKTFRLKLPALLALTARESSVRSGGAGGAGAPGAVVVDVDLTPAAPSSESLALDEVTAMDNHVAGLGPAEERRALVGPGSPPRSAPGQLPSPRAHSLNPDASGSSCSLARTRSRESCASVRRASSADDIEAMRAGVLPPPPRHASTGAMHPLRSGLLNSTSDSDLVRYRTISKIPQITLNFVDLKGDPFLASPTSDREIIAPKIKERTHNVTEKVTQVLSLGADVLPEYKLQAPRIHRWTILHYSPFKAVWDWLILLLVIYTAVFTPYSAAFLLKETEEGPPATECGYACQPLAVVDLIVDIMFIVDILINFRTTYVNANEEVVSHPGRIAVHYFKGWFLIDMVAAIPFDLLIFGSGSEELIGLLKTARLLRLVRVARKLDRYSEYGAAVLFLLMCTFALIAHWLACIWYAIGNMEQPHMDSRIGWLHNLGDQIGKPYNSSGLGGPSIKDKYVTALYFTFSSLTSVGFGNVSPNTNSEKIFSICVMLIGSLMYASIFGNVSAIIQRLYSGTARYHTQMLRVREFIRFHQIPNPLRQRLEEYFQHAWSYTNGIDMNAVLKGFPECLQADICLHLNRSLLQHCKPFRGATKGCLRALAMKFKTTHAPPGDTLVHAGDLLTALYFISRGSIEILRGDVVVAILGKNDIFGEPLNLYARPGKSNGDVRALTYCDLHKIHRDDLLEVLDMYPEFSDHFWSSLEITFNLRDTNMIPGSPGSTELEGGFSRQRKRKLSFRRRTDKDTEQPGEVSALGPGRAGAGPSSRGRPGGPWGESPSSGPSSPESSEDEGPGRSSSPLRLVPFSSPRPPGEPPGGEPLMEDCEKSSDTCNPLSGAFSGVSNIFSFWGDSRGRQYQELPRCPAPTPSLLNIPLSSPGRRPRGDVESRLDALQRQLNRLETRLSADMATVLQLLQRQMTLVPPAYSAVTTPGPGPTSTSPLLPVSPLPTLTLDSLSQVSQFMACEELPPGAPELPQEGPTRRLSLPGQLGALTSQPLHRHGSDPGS
Consider `CCSc1ccc2c(c1)N(CCCN1CCN(C)CC1)c1ccccc1S2.O=C(O)CC(O)C(=O)O`, for which the “hERG current change (%, negative = inhibition) at 1uM” value is given as 3.21%. With `CCOC(=O)[C@@H]1[C@H]2COc3ccc(Br)cc3[C@@H]2N2C(=O)N(c3ccc(Cl)cc3)C(=O)[C@]12C`, the “hERG current change (%, negative = inhibition) at 1uM” value stood at 5.97%. Turning to `COc1ccc(C2C(C#N)=C(N)OC3=C2C(=O)CC(C)C3)c(OC)c1OC` (stereo not drawn), the “hERG current change (%, negative = inhibition) at 1uM” value turned out to be 10%. Under `COC(=O)c1ccc(N2CCN(c3ccccc3)CC2)nc1` stands 10.6%. As to `Clc1ccc(CN2CCN(/N=C/c3cccnc3)CC2)cc1`, the “hERG current change (%, negative = inhibition) at 1uM” value is reported as 7.43%. For `O=C(O)c1ccc(S(=O)(=O)Nc2ccc(O)c(Sc3nc4ccccc4s3)c2)cc1`, the “hERG current change (%, negative = inhibition) at 1uM” value is 9.28%. Under `COc1cc(C(=O)Nc2ccc([N+](=O)[O-])cn2)cc(OC)c1OC` stands 12%; under `CCOC(=O)C(C(=O)OCC)C(C(=O)OCC)N1CCOCC1` (stereo not drawn), 15.7%; under `COc1cccc(OCc2nc3c4cnn(-c5ccccc5)c4ncn3n2)c1`, 5.22%. Turning to `COc1ccc(/[N+]([O-])=C/c2ccco2)cc1`, the “hERG current change (%, negative = inhibition) at 1uM” value amounted to 13.1%. Regarding `C=CCN(c1ccccc1)S(=O)(=O)c1ccc2[nH]cc(C(=O)NCCOC)c(=O)c2c1`, the “hERG current change (%, negative = inhibition) at 1uM” value was determined as 9.96%. As for `Cc1cccc(Cn2nc(-n3cccc3)c3c(C)cc(C)nc32)c1`, the “hERG current change (%, negative = inhibition) at 1uM” value came out at 11.5%. The figure for `COc1ccc(CC(=O)N/N=C/C=C/c2cccc([N+](=O)[O-])c2)cc1OC` is 15.6%. On to `CCc1ccc(NC(=O)CNC(=O)[C@@H]2Cc3ccccc3CN2)cc1`, for which the “hERG current change (%, negative = inhibition) at 1uM” value was 1.35%.

In the case of `C/C(=N\NC(=O)COc1ccc(C)cc1C(C)C)c1cc2ccccc2o1`, the “hERG current change (%, negative = inhibition) at 1uM” value was 9.23%. The figure for `CCC(C)NC(=O)CNC(=O)c1nn(-c2ccc(OC)cc2OC)c(=O)c2ccccc12` (stereo not drawn) is 19.3%; for `CCCCCCOC(=O)Cc1c(C)nc(-c2ccccc2)[nH]c1=O` it is 3.98%. Consider `Cc1cc(C)cc(NC(=S)N2CCC(NC(=O)c3ccc(F)cc3)CC2)c1`, for which the “hERG current change (%, negative = inhibition) at 1uM” value is 5.31%. The figure for `CCOC(=O)c1cc(C(=O)Nc2cccc(C)c2)nn1C` is 15.9%; for `O=C(COC(=O)Cc1ccsc1)Nc1ccc(Cl)c(S(=O)(=O)N2CCOCC2)c1` it is -2.15%.

Regarding `CC(NS(=O)(=O)c1ccc(Br)cc1)C(=O)NC1CCCCCC1` (stereo not drawn), the “hERG current change (%, negative = inhibition) at 1uM” value turned out to be 3.02%. Under `Cc1cc(C)nc(Nc2ccccc2F)n1.Cl` stands 9.3%; under `Cc1cccn2c(=O)c3cc(S(=O)(=O)c4ccc(Br)cc4)c(=N)n(C4CCCCC4)c3nc12`, 26%; under `C/C(=N/NS(=O)(=O)c1ccc(Cl)cc1)c1ccncc1`, 11.9%. As for `O=C(Nc1ccc(Cc2ccncc2)cc1)C1CC1`, the “hERG current change (%, negative = inhibition) at 1uM” value is 9.03%. Turning to `Cc1ccc([C@H]2C(C#N)=C(N)Oc3cc(C)oc(=O)c32)o1`, the “hERG current change (%, negative = inhibition) at 1uM” value is given as 12.8%. Consider `O=C(c1ccc(NC2=NC3CS(=O)(=O)CC3S2)cc1)N1CCc2ccccc2C1` (stereo not drawn), for which the “hERG current change (%, negative = inhibition) at 1uM” value was 14.2%. Under `Cc1ccc2c(ccc(=S)n2C)c1` stands 12.3%; under `N=c1c2c(ncn1Cc1ccco1)Oc1c(ccc3ccccc13)C2c1ccccc1` (stereo not drawn), 1.59%; under `O=C(CC1OC(=O)c2ccccc21)NC1CCCCC1` (stereo not drawn), 14.1%. In the case of `Cc1ccc(S(=O)(=O)N2CCCC(C(=O)Nc3ccc(C(=O)O)cc3)C2)cc1Cl` (stereo not drawn), the “hERG current change (%, negative = inhibition) at 1uM” value is -15.7%.

On to `COc1ccc(C)cc1NC(=O)CCc1c(C)nn(-c2ccc(N3CCCCC3)nn2)c1C`, for which the “hERG current change (%, negative = inhibition) at 1uM” value came out at 7.22%. In the case of `Cc1cccc(C)c1NC(=O)COc1cccc(/C=N/NC(=O)C(=O)NCc2ccccc2)c1`, the “hERG current change (%, negative = inhibition) at 1uM” value is given as 1.74%. Regarding `COC(=O)c1cc2c(-c3ccccc3)cc3ccccn3c-2c1C(=O)OC`, the “hERG current change (%, negative = inhibition) at 1uM” value came to 10.4%. In the case of `Cc1noc(C)c1CSc1ncnc2sc3c(c12)CCC(C)C3` (stereo not drawn), the “hERG current change (%, negative = inhibition) at 1uM” value was 6.66%. Under `COc1ccc(OC)c(/C=C/c2nc3ccccc3[nH]c2=O)c1` stands 13.2%.

With `CCCN1C(=O)C(O)(CC(=O)c2cccc(OC)c2)c2ccccc21` (stereo not drawn), the “hERG current change (%, negative = inhibition) at 1uM” value is on record as 6.79%. For `O=C(CSc1ccccc1C(=O)O)NCc1ccccc1`, the “hERG current change (%, negative = inhibition) at 1uM” value was found to be 12.9%. For `Cc1c(NC(=O)COc2ccc3ccccc3c2)c(=O)n(-c2ccccc2)n1C`, the “hERG current change (%, negative = inhibition) at 1uM” value is on record as -6.25%. Consider `C=CCn1c(SCC(=O)O)nnc1-c1cccs1`, for which the “hERG current change (%, negative = inhibition) at 1uM” value stood at 9.03%. For `O=C1C=C(Nc2ccc(Cl)cc2)CC(c2ccco2)C1` (stereo not drawn), the “hERG current change (%, negative = inhibition) at 1uM” value is 4.78%. For the compound `O=C(CCCOc1ccc(Cl)cc1)NC1CCCCC1`, the “hERG current change (%, negative = inhibition) at 1uM” value was 12.5%.

As for `COc1ccc(C(CNC(=O)c2cc(F)c(F)c(F)c2F)N2CCOCC2)cc1` (stereo not drawn), the “hERG current change (%, negative = inhibition) at 1uM” value was 8.2%. The figure for `CC(=O)c1cccc(S(=O)(=O)NC2CCSc3ccccc32)c1` (stereo not drawn) is 7.95%; for `CC(C)(C)C(=O)Nc1nc(-c2ccc3c(c2)OCO3)cs1` it is 2.21%.

As for `Cc1ccc(SC[C@H](C)CN2CC[C@H](NC(=O)OCc3ccccc3)CCC2=O)cc1`, the “hERG current change (%, negative = inhibition) at 1uM” value is on record as -8.38%. The figure for `CCN(CC)CC(=O)Nc1ccc2c(c1)N(C(=O)CN(CC)CC)c1ccccc1CC2.Cl.O` is 15.9%; for `Cc1ccsc1/C=N/NC(=S)NCCc1ccccc1` it is 7.99%. The figure for `CC(=O)c1c(C)[nH]c(C(=O)CSc2nnc(C)s2)c1C` is 1.75%. Under `COCCNC(=O)c1onc(CSc2ccc(F)c(F)c2)c1C(=O)O` stands 6.16%; under `CC(C)CN(C(=O)Cn1c(C(F)(F)F)nc2ccccc21)C1CCS(=O)(=O)C1` (stereo not drawn), 2.67%; under `CCOc1cc2[nH]c(=S)n(CCN3CCCCC3CC)c(=O)c2cc1OCC` (stereo not drawn), -19.5%.

Regarding `CN(Cc1ccc(F)cc1)C(=O)c1ccc(NS(=O)(=O)c2ccc3[nH]c(=O)[nH]c3c2)cc1`, the “hERG current change (%, negative = inhibition) at 1uM” value is 12.8%. For `C(=N\Nc1nc(-c2ccccc2)cs1)/c1ccncc1`, the “hERG current change (%, negative = inhibition) at 1uM” value stood at 9.82%. Consider `CSc1ccc(CCNC(=O)CCc2nnc3ccc(N4CCC5(CC4)OCCO5)nn23)cc1`, for which the “hERG current change (%, negative = inhibition) at 1uM” value was found to be 18%. Regarding `O=C(NCc1ccccn1)Nc1ccc(Br)cc1Cl`, the “hERG current change (%, negative = inhibition) at 1uM” value is listed as 15.5%. The figure for `Cc1cc(C(=O)CSc2nnc(-c3ccco3)o2)c(C)n1Cc1ccco1` is 19.6%; for `CC1CCCN(C(=O)c2ccc3c(c2)C(=O)N(CCC2=CCCCC2)C3=O)C1` (stereo not drawn) it is 4.73%. Under `Cc1cc(C(=O)N2CCc3c([nH]c4ccccc34)C2c2cccc(Cl)c2)nn1C` (stereo not drawn) stands 15.5%. Take `CCOC(=O)c1nnn(-c2ccc([N+](=O)[O-])cc2[N+](=O)[O-])c1C`: the “hERG current change (%, negative = inhibition) at 1uM” value was 11.6%. Under `O=C(NCc1cccs1)C1CCN(S(=O)(=O)c2cccc([N+](=O)[O-])c2)CC1` stands 0.192%.

Consider `O=C(CNCc1ccccc1Cl)Nc1ccccc1N1CCCCC1.O=C(O)C(=O)O`, for which the “hERG current change (%, negative = inhibition) at 1uM” value worked out at 18%. Consider `CN(C(=O)c1c(Cl)nc2sccn12)C1CCCCC1`, for which the “hERG current change (%, negative = inhibition) at 1uM” value was -2.92%. The figure for `Cc1nnc(NC(=O)C(C)Sc2nncn2C)s1` (stereo not drawn) is 15.3%. Under `Cc1ccc(O)c(C(=O)c2cnc3c(c2)COc2ccccc2-3)c1` stands 2.56%.

As to `CCCCCC(=O)Nc1ccc(Cl)cn1`, the “hERG current change (%, negative = inhibition) at 1uM” value came out at 15.4%. Take `CC12CCC(=O)N1C(C(=O)Nc1cc(Cl)ccc1N1CCCC1)CS2` (stereo not drawn): the “hERG current change (%, negative = inhibition) at 1uM” value was determined as 9.47%.

With `CC(C)(C)NC(=O)Cn1nnnc1-c1nonc1N`, the “hERG current change (%, negative = inhibition) at 1uM” value is listed as -5.68%.

Take `COc1cccc([C@@H]2Oc3ccc(OC)cc3C(=O)[C@H]2OC(=O)Nc2cc(OC)c(OC)c(OC)c2)c1`: the “hERG current change (%, negative = inhibition) at 1uM” value was found to be 12.5%.

Regarding `O=C(NCCCN1CCOCC1)c1ccc(Cl)cc1Cl`, the “hERG current change (%, negative = inhibition) at 1uM” value came out at 7.26%. On to `CC(C)C(=O)N1CCN(c2ccccc2NC(=O)c2ccc(C#N)cc2F)CC1`, for which the “hERG current change (%, negative = inhibition) at 1uM” value is -9.51%. As for `CC(C)Cn1c(N)c(C(=O)COC(=O)c2c(O)c(Cl)cc(Cl)c2Cl)c(=O)n(C)c1=O`, the “hERG current change (%, negative = inhibition) at 1uM” value is -2.42%. Under `C[C@@H](C(=O)N1CCNCC1)n1cc(CCC(=O)O)nn1.Cl` stands 19.8%; under `Cc1c(/C=C2\SC(=Nc3cccc(C(=O)O)c3)NC2=O)c2ccccc2n1C`, 3.96%; under `Clc1nc(Cl)nc(N(c2ccccc2)c2ccccc2)n1`, 4.34%. The figure for `CN(C(=O)c1ccc2c(c1)S(=O)(=O)N=C1CCCCCN12)c1ccccc1` is 8.7%; for `O=C(NC1CCN(C(=O)NC2CCCCC2)CC1)c1cccc(F)c1` it is 10.9%.

As for `C=CCNC(=O)COc1ccc(S(=O)(=O)Nc2ccc(OCC)cc2)cc1`, the “hERG current change (%, negative = inhibition) at 1uM” value was 9.68%. In the case of `CC1CC(C)(C)CC2(C1)NC(=O)N(CC(=O)Nc1nccs1)C2=O` (stereo not drawn), the “hERG current change (%, negative = inhibition) at 1uM” value is 6.1%. As for `O=C(NS(=O)(=O)c1ccc(NC(=O)C2CCCO2)cc1)c1ccccc1` (stereo not drawn), the “hERG current change (%, negative = inhibition) at 1uM” value is listed as -0.266%. Under `CC(C)n1nc(C(=O)Nc2cccc(S(=O)(=O)N3CCOCC3)c2)c2ccccc2c1=O` stands 3.84%; under `CC1=C/C(=N\NC(=S)NCc2ccccc2)CC1`, 1.56%; under `O=S(=O)(NCCO)c1ccc2c(c1)Cc1cc(S(=O)(=O)NCCO)ccc1-2`, 6.46%.

In the case of `Cc1ccc(-c2n[nH]c(=S)nc2-c2ccc(C)cc2)cc1`, the “hERG current change (%, negative = inhibition) at 1uM” value came to 14.1%.

Turning to `Cc1ccc(-n2c(O)c(/C=N/n3cnnc3)c3ccccc3c2=O)cc1` [7972794], the “hERG current change (%, negative = inhibition) at 1uM” value was 6.44%.

Turning to `Cc1cc(C(=O)NC2CC(C)(C)Cc3c2cnn3-c2ccc(F)cc2)no1` (stereo not drawn), the “hERG current change (%, negative = inhibition) at 1uM” value is given as 5.59%. As to `Cc1ccccc1NC(=S)N1CCN(c2ccccc2C)CC1`, the “hERG current change (%, negative = inhibition) at 1uM” value is reported as 14.3%.
